Data published in article PMC6787559.
No constants are given. Whether binding was seen depends on the method and setting. For some of these results: In cells and extracts the contact can be indirect. Some results given as binding are weak or reduced against the parent protein; the word gives no strength. Sequences can lack the tags named with a protein.

Sequences of proteins named here, by UniProt entry; tags and fusion partners are left off. A change or cut given only in a name is not applied to a line headed by its entry.
UniProt Q96RY7: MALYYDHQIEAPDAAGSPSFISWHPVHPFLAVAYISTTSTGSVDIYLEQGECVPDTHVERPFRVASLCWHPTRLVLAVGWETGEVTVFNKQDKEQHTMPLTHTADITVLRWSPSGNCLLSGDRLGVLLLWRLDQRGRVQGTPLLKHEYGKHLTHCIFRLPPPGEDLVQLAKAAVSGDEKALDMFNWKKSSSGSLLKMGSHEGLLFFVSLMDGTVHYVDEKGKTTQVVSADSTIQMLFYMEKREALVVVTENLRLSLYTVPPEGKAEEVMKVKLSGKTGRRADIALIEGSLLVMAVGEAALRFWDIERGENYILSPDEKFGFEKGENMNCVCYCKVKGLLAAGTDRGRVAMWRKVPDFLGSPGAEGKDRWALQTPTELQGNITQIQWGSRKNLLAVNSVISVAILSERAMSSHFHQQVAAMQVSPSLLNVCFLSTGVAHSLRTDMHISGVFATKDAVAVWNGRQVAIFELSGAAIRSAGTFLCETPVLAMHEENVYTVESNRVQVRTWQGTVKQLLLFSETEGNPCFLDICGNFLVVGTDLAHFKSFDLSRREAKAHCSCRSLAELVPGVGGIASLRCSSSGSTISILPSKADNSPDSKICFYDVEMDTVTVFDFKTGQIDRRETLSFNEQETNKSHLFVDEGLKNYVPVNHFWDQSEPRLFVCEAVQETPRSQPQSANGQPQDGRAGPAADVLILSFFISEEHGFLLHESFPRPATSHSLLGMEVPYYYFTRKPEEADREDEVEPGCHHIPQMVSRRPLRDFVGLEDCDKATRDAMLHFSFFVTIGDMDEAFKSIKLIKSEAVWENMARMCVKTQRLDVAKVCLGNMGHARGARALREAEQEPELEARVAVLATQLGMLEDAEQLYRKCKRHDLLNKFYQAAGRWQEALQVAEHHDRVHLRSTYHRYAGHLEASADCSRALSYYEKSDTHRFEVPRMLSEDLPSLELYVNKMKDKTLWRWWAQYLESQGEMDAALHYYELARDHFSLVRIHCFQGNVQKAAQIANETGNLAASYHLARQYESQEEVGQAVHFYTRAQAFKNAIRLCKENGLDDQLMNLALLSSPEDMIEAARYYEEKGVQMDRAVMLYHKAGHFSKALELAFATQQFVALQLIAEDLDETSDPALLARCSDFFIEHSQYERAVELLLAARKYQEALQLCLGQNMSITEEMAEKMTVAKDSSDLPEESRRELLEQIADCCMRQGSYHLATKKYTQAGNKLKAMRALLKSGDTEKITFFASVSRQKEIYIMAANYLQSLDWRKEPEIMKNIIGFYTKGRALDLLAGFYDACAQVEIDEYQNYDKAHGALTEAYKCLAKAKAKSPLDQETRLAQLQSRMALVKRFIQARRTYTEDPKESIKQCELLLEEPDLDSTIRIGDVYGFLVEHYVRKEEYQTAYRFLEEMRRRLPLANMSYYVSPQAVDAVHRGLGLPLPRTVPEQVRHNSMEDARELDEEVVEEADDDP

T1: full length IFT81 fused to the GAL4 DNA-binding domain (UniProt Q8WYA0)
T1 sequence: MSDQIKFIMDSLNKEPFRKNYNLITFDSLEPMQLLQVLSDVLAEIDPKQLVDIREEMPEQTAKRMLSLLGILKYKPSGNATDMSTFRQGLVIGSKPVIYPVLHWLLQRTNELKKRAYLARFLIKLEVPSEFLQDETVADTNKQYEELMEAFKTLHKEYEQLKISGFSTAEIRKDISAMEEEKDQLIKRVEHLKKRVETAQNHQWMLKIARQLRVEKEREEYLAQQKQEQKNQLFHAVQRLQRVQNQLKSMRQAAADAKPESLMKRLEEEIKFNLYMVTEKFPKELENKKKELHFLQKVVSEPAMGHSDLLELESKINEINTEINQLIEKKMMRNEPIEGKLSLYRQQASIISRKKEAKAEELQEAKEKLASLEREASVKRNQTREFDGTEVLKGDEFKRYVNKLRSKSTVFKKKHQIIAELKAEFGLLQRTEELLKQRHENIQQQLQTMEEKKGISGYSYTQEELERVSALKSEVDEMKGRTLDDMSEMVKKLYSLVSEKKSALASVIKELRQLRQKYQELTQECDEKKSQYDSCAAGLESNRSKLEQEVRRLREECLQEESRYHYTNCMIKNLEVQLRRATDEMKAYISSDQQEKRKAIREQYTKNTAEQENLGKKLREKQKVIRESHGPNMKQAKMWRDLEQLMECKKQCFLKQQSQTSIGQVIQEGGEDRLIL

T2: GFP-tagged SANS (human) (UniProt Q495M9)
T2 sequence: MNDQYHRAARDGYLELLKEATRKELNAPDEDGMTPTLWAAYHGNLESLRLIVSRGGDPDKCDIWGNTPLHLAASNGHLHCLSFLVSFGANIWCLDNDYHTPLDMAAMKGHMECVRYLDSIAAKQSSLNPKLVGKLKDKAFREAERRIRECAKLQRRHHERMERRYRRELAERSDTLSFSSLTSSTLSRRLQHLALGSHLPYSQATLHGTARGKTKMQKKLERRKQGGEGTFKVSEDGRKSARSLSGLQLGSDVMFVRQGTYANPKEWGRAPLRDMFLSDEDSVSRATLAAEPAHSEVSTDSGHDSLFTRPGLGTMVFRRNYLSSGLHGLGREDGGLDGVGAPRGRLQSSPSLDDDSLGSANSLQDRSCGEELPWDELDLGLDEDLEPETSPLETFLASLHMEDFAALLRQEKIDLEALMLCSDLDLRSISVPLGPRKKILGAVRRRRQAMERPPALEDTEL

T3: GFP-tagged IFT52 (UniProt Q9Y366)
T3 sequence: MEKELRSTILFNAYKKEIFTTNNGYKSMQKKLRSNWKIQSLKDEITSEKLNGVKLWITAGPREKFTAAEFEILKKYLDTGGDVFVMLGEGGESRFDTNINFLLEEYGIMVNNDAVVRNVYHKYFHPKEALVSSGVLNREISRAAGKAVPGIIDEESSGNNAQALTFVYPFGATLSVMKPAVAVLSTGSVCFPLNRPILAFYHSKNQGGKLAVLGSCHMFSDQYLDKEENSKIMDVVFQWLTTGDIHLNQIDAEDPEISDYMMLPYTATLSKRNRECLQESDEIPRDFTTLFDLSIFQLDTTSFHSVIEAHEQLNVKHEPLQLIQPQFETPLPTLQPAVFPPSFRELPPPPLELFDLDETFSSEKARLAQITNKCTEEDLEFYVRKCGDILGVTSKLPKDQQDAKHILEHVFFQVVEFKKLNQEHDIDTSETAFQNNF

T4: GFP-tagged IFT57 (UniProt Q9NWB7)
T4 sequence: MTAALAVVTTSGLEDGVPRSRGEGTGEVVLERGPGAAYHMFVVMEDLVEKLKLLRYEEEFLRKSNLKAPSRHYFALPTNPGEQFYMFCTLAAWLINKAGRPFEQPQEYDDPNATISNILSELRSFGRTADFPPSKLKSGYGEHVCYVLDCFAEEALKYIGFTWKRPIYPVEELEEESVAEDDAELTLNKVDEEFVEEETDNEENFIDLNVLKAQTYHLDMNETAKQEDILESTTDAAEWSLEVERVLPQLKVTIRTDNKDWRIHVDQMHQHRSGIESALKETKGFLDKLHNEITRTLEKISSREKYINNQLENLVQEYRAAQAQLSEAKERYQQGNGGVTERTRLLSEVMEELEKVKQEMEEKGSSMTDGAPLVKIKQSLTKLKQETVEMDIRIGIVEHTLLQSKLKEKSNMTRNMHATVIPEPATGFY

T5: PalmMyr-CFP-SANS (human) (UniProt Q495M9)
T5 sequence: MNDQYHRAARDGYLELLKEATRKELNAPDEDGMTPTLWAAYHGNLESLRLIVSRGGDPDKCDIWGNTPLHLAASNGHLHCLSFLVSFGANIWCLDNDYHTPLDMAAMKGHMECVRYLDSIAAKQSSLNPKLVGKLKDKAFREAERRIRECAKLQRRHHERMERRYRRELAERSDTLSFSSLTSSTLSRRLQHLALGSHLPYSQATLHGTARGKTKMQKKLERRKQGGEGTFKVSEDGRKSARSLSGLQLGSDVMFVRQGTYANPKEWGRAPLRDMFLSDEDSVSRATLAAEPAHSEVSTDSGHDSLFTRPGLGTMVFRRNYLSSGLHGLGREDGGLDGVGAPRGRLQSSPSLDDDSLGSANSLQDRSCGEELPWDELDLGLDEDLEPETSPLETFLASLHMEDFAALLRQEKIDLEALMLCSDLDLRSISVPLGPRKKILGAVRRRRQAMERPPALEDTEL


Tests used:
[1] = target: T1, full length IFT81 fused to the GAL4 DNA-binding domain; assay: two-hybrid; 1:1 Y2H; full length IFTs fused to GAL4 DNA-binding domain as bait, full length SANS fused to GAL4 activation domain as prey; strains PJ694alpha and PJ694A mated; selection on -LWHA media, X-beta-gal filter lift assay; three assays for each IFT
[2] = target: IFT140 (IFT-A complex) in the 1:1 Y2H (UniProt Q96RY7); assay: two-hybrid; 1:1 Y2H of SANS and IFT140, data not shown; initial, not validated
GFP-tagged SANS (human) = target: T2, GFP-tagged SANS (human); assay: co-IP; GFP-Trap nanobody immunoprecipitation; lysates of co-transfected HEK293T cells; GFP-tagged protein immobilised on GFP-Trap agarose beads, 2 h at 4 C; 10 mM Tris-Cl pH 7.5, 150 mM NaCl, 0.5 mM EDTA; FLAG-tagged protein detected by Western blot
GFP-tagged IFT52 = target: T3, GFP-tagged IFT52; assay: as above
GFP-tagged IFT57 = target: T4, GFP-tagged IFT57; assay: as above
PalmMyr-CFP-SANS (human) = target: T5, PalmMyr-CFP-SANS (human); assay: membrane targeting assay; HEK293T cells co-transfected with PalmMyr-CFP-SANS or PalmMyr-CFP and 3xFLAG-IFTs; anti-FLAG immunofluorescence 24 h after transfection; recruitment to the plasma membrane

Binder	binding (GFP-tagged SANS (human))	binding (GFP-tagged IFT52)	binding (GFP-tagged IFT57)	other results
SANS full length fused to the GAL4 activation domain (protein, UniProt Q495M9 1-461) MNDQYHRAARDGYLELLKEATRKELNAPDEDGMTPTLWAAYHGNLESLRLIVSRGGDPDKCDIWGNTPLHLAASNGHLHCLSFLVSFGANIWCLDNDYHTPLDMAAMKGHMECVRYLDSIAAKQSSLNPKLVGKLKDKAFREAERRIRECAKLQRRHHERMERRYRRELAERSDTLSFSSLTSSTLSRRLQHLALGSHLPYSQATLHGTARGKTKMQKKLERRKQGGEGTFKVSEDGRKSARSLSGLQLGSDVMFVRQGTYANPKEWGRAPLRDMFLSDEDSVSRATLAAEPAHSEVSTDSGHDSLFTRPGLGTMVFRRNYLSSGLHGLGREDGGLDGVGAPRGRLQSSPSLDDDSLGSANSLQDRSCGEELPWDELDLGLDEDLEPETSPLETFLASLHMEDFAALLRQEKIDLEALMLCSDLDLRSISVPLGPRKKILGAVRRRRQAMERPPALEDTEL	–	–	–	binding [1]: no binding; binding [2]: binds
3xFLAG-IFT52 (protein, UniProt Q9Y366 1-437) MEKELRSTILFNAYKKEIFTTNNGYKSMQKKLRSNWKIQSLKDEITSEKLNGVKLWITAGPREKFTAAEFEILKKYLDTGGDVFVMLGEGGESRFDTNINFLLEEYGIMVNNDAVVRNVYHKYFHPKEALVSSGVLNREISRAAGKAVPGIIDEESSGNNAQALTFVYPFGATLSVMKPAVAVLSTGSVCFPLNRPILAFYHSKNQGGKLAVLGSCHMFSDQYLDKEENSKIMDVVFQWLTTGDIHLNQIDAEDPEISDYMMLPYTATLSKRNRECLQESDEIPRDFTTLFDLSIFQLDTTSFHSVIEAHEQLNVKHEPLQLIQPQFETPLPTLQPAVFPPSFRELPPPPLELFDLDETFSSEKARLAQITNKCTEEDLEFYVRKCGDILGVTSKLPKDQQDAKHILEHVFFQVVEFKKLNQEHDIDTSETAFQNNF	binds	–	–	binding (PalmMyr-CFP-SANS (human)): binds
3xFLAG-tagged SANS CENT (aa 125-388) (domain or fragment, UniProt Q495M9 125-388) SSLNPKLVGKLKDKAFREAERRIRECAKLQRRHHERMERRYRRELAERSDTLSFSSLTSSTLSRRLQHLALGSHLPYSQATLHGTARGKTKMQKKLERRKQGGEGTFKVSEDGRKSARSLSGLQLGSDVMFVRQGTYANPKEWGRAPLRDMFLSDEDSVSRATLAAEPAHSEVSTDSGHDSLFTRPGLGTMVFRRNYLSSGLHGLGREDGGLDGVGAPRGRLQSSPSLDDDSLGSANSLQDRSCGEELPWDELDLGLDEDLEPE	–	binds weakly	binds weakly	–

The next lines start with results.

binding (GFP-tagged SANS (human))	binding (GFP-tagged IFT52)	binding (GFP-tagged IFT57)	Binder	other results
binds	binds	–	3xFLAG-tagged SANS full length (protein, UniProt Q495M9 1-461) MNDQYHRAARDGYLELLKEATRKELNAPDEDGMTPTLWAAYHGNLESLRLIVSRGGDPDKCDIWGNTPLHLAASNGHLHCLSFLVSFGANIWCLDNDYHTPLDMAAMKGHMECVRYLDSIAAKQSSLNPKLVGKLKDKAFREAERRIRECAKLQRRHHERMERRYRRELAERSDTLSFSSLTSSTLSRRLQHLALGSHLPYSQATLHGTARGKTKMQKKLERRKQGGEGTFKVSEDGRKSARSLSGLQLGSDVMFVRQGTYANPKEWGRAPLRDMFLSDEDSVSRATLAAEPAHSEVSTDSGHDSLFTRPGLGTMVFRRNYLSSGLHGLGREDGGLDGVGAPRGRLQSSPSLDDDSLGSANSLQDRSCGEELPWDELDLGLDEDLEPETSPLETFLASLHMEDFAALLRQEKIDLEALMLCSDLDLRSISVPLGPRKKILGAVRRRRQAMERPPALEDTEL	–
–	binds	binds	3xFLAG-tagged SANS Nterm (aa 2-126) (domain or fragment, UniProt Q495M9 2-126) NDQYHRAARDGYLELLKEATRKELNAPDEDGMTPTLWAAYHGNLESLRLIVSRGGDPDKCDIWGNTPLHLAASNGHLHCLSFLVSFGANIWCLDNDYHTPLDMAAMKGHMECVRYLDSIAAKQSS	–
